# Results reported in the BET-seq Pho4 binding data (Le et al. 2018).
# The list shows a part of the results. These are noisy estimates, calculated here from bound and input reads.
# Biological target: T1, Pho4 (S. cerevisiae) (UniProt P07270)
# T1 sequence: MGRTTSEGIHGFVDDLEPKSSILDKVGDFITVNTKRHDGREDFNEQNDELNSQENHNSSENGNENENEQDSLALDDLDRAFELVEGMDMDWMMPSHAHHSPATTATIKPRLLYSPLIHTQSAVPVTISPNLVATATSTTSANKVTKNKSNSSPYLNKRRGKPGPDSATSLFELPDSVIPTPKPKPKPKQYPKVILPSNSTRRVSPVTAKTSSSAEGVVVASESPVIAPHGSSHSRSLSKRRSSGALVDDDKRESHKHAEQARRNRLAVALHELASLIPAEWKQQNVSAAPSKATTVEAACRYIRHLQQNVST
# Assay: relative binding free energy (BET-seq); higher = weaker binding
# Details: reference: library average
row,Sequence,relative binding free energy
1,TCGAACACGTGTGGGT,0.01 kcal/mol
2,TTATACACGTGTGTGC,0.11 kcal/mol
3,GATTGCACGTGTCTGT,0.12 kcal/mol
4,AGGGCCACGTGGAGTT,-0.17 kcal/mol
5,TTAGCCACGTGGGTAG,-0.19 kcal/mol
6,CGTAGCACGTGAAGTG,0.4 kcal/mol
7,TGCAGCACGTGGCGGG,-0.24 kcal/mol
8,GTTAACACGTGTAAGG,0.14 kcal/mol
9,CGGGGCACGTGTTGCG,-0.21 kcal/mol
10,ACGGTCACGTGGATTT,0.14 kcal/mol
11,GTAATCACGTGTTCTT,0.17 kcal/mol
12,GGAATCACGTGGTGTA,0.11 kcal/mol
13,AGGGTCACGTGGAGAG,0.16 kcal/mol
14,ATGGGCACGTGGGTCG,-0.22 kcal/mol
15,GAGTGCACGTGCGTTT,-0.05 kcal/mol
16,CATTGCACGTGACGTG,0.11 kcal/mol
17,TTTAACACGTGAAGCT,0.23 kcal/mol
18,GGCGGCACGTGGGGCC,-0.19 kcal/mol
19,CGTTTCACGTGTTAGC,0.37 kcal/mol
20,GTTTTCACGTGGAGAT,0.32 kcal/mol
21,GGTCTCACGTGGATGA,0.12 kcal/mol
22,ATGTACACGTGGCGCG,-0.03 kcal/mol
23,TTTGTCACGTGGGCTC,-0.06 kcal/mol

row,Sequence,relative binding free energy
1,CTTGGCACGTGGGGCG,-0.25 kcal/mol
2,AACGTCACGTGGTTTG,0.08 kcal/mol
3,TCTTTCACGTGTCTTG,0.33 kcal/mol
4,GTATACACGTGGTCGG,-0.14 kcal/mol
5,TGAGTCACGTGGTGTC,0 kcal/mol
6,GGGATCACGTGAATGG,0.47 kcal/mol
7,TTTAGCACGTGAAAGG,0.2 kcal/mol
8,TGGAACACGTGTGGCG,0.1 kcal/mol
9,CGTAGCACGTGGAGGT,-0.09 kcal/mol
10,AGTTACACGTGACGTG,0.26 kcal/mol
11,TAGCTCACGTGTTGGT,0.26 kcal/mol
12,GAAGTCACGTGGTTCT,0.24 kcal/mol
13,CGTTTCACGTGGGGAT,0.06 kcal/mol
14,GGGGACACGTGGTTAT,-0.05 kcal/mol
15,AGTCGCACGTGTTCGT,0.02 kcal/mol
16,GTCGGCACGTGATTTG,0.28 kcal/mol
17,TATGACACGTGGTACG,-0.01 kcal/mol
18,ATCTGCACGTGGGTAG,-0.08 kcal/mol
19,TTCAGCACGTGGGGAT,-0.12 kcal/mol
20,TGCTCCACGTGTTTGG,-0.02 kcal/mol
21,CTAGGCACGTGTTTTT,-0.03 kcal/mol
22,GTTAGCACGTGGACGT,-0.05 kcal/mol
23,AGATTCACGTGTATAT,0.24 kcal/mol

row,Sequence,relative binding free energy
1,AATGGCACGTGTGCTT,-0.19 kcal/mol
2,TTGTCCACGTGAGGGG,0.22 kcal/mol
3,TTGCGCACGTGTACAG,0 kcal/mol
4,TGTCGCACGTGACATG,0.11 kcal/mol
5,GTGGACACGTGGTCAG,0.03 kcal/mol
6,GTAGGCACGTGTGAAG,0.12 kcal/mol
7,TGTTCCACGTGGAGAT,0.1 kcal/mol
8,TTCGGCACGTGTGTGT,-0.11 kcal/mol
9,AATTTCACGTGTTCTG,0.2 kcal/mol
10,CTTCTCACGTGGTGGG,0.11 kcal/mol
11,CGAGGCACGTGTGGCT,-0.04 kcal/mol
12,ATAGCCACGTGGAGGG,-0.03 kcal/mol
13,GTGTTCACGTGTGTGG,0.37 kcal/mol
14,GGTGACACGTGGGTAG,-0.06 kcal/mol
15,CTTTTCACGTGAATAG,0.46 kcal/mol
16,AGTGACACGTGGCTGG,-0.04 kcal/mol
17,ATTAGCACGTGGCGTC,-0.04 kcal/mol
18,TGTTGCACGTGTGACG,0.06 kcal/mol
19,CGGGACACGTGTGGCT,0.05 kcal/mol
20,TTAGACACGTGTGTAA,0.04 kcal/mol
21,TTTAACACGTGATGTA,0.16 kcal/mol
22,GGGGGCACGTGTGTTT,-0.12 kcal/mol
23,TGTGCCACGTGGAAAG,0.09 kcal/mol

row,Sequence,relative binding free energy
1,AAGGGCACGTGTCGAT,0.06 kcal/mol
2,GTGGTCACGTGGTTTT,0.21 kcal/mol
3,ATTCACACGTGAGGGG,0.2 kcal/mol
4,CGTTGCACGTGTTGCT,-0.08 kcal/mol
5,CGGTCCACGTGGGGTG,-0.26 kcal/mol
6,GGGCCCACGTGGAGGT,-0.13 kcal/mol
7,TTACTCACGTGTGCTG,0.16 kcal/mol
8,GGGCACACGTGCTGGT,-0.07 kcal/mol
9,CTATTCACGTGTTTTG,0.27 kcal/mol
10,TACTACACGTGGGAGG,0.06 kcal/mol
11,ATTTTCACGTGGGTAG,0.25 kcal/mol
12,GTGTCCACGTGTTGAG,-0.02 kcal/mol
13,TATAGCACGTGATGGC,0.2 kcal/mol
14,GGTGCCACGTGATGGA,0.12 kcal/mol
15,GGGTTCACGTGTGCTT,0.31 kcal/mol
16,AGTATCACGTGTTTCT,0.17 kcal/mol
17,GTCGGCACGTGTGGTA,0.01 kcal/mol
18,GGATGCACGTGGAGCA,0.1 kcal/mol
19,AATTTCACGTGAGTGC,0.25 kcal/mol
20,AAATTCACGTGCGTAT,0.26 kcal/mol
21,ATATACACGTGCGGGG,-0.04 kcal/mol
22,TTGGTCACGTGATTCG,0.29 kcal/mol
23,ATGGGCACGTGTTGCC,0.1 kcal/mol

row,Sequence,relative binding free energy
1,GGTTGCACGTGGGTAG,-0.16 kcal/mol
2,ATAGACACGTGGCGTG,0.05 kcal/mol
3,AGTAGCACGTGTTTTC,-0.04 kcal/mol
4,CGAGTCACGTGCGGCG,0.13 kcal/mol
5,GGGGGCACGTGACGAA,0 kcal/mol
6,ATTCGCACGTGTGTCG,0.04 kcal/mol
7,GTGCGCACGTGTTTGC,-0.1 kcal/mol
8,GGGGACACGTGTTCGG,0 kcal/mol
9,AGTTGCACGTGGTTGG,0.01 kcal/mol
10,GGGACCACGTGGGAGT,-0.22 kcal/mol
11,CGGGGCACGTGTGTAG,-0.09 kcal/mol
12,AGAGCCACGTGTTAGT,-0.03 kcal/mol
13,TTCAACACGTGTGTAA,0.1 kcal/mol
14,GGAGGCACGTGGTAAT,-0.17 kcal/mol
15,GGGTCCACGTGTATGT,0.04 kcal/mol
16,TTAGACACGTGGTGCG,-0.28 kcal/mol
17,TTTAGCACGTGATATT,0.22 kcal/mol
18,TGAAGCACGTGTGGAC,0.03 kcal/mol
19,TTCGTCACGTGCATGT,0.06 kcal/mol
20,TATTCCACGTGAGGGT,0.19 kcal/mol
21,GGGCGCACGTGTTTAG,0.01 kcal/mol
22,GGTCTCACGTGGGAGG,0.09 kcal/mol
23,GTGGTCACGTGGGAAT,0.19 kcal/mol
